Measurements from the supplement of paper PMC3334620.
Over roughly 33,000 sequences, “E-score (-0.5 to 0.5)” has its median near -0.035; the highest 2% begin near 0.34. The list shows a part of the results.

The sequences below were run against T1, Mot3 (UniProt P54785) (assay: PBM E-score (8-mer binding enrichment) (E-score (-0.5 to 0.5)); higher = stronger / more preferred TF binding; most listed sequences are background and not binding sites). Conditions: protein concentration: 200 nM; construct: GST-full length.
T1 sequence: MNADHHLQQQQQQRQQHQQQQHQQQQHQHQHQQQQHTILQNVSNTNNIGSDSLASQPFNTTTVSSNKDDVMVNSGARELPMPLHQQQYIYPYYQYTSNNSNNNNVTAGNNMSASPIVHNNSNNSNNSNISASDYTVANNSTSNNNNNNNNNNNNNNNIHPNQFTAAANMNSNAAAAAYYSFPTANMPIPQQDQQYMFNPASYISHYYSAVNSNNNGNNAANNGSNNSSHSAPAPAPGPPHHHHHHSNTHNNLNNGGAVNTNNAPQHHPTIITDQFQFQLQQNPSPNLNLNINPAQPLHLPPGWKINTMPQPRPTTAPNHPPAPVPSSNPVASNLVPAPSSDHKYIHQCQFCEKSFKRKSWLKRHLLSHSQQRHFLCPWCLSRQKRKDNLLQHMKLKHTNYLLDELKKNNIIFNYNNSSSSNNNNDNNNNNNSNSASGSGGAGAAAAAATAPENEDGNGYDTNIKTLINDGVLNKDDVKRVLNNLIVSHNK
How it was run: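 Masliner-normalised scans of fluorescent anti-GST signal were the basis for scoring. That signal came from GST-tagged yeast transcription factors applied at about 100-200 nM to double-stranded universal all-10-mer Agilent arrays on fresh or once-stripped slides. Each ungapped eight-base word, pooled with its reverse complement, received an E-score from the Universal PBM Analysis Suite.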

Sequence | PBM E-score
ATCTCAGA | -0.0385
CCCTTCAG | -0.0368
AGTTATGG | -0.14
CTTTCTGA | 0.136
AACTTGAA | 0.102
AATCCGCT | -0.247
GCACAGGA | 0.117
GTCAAAGA | 0.07
AAATCACC | 0.0456
CGTCGGCA | -0.106
CGTCGCAA | -0.149
CCCTGCGA | -0.212
CCTACCAA | 0.106
AGGGTGCA | -0.219
CGGCGTGA | -0.216
AAGTATTC | -0.0349
AGAGTGCT | -0.0257
CTCGGTTC | -0.0147
CGGCGTTA | -0.0281
ATCATAAT | 0.0295
AACGCCTT | 0.249
CAGCTCAA | -0.103

Sequence | PBM E-score
ATTTGGCC | 0.0203
GGATATAC | -0.0873
CATTCCGC | -0.146
ATAGACAG | 0.0639
TACGTAGA | 0.286
ACAGCTCA | 0.041
CTCTACGC | 0.188
CAGCCTAC | -0.0906
CCTCGCCG | -0.331
CGCGGGCA | 0.063
AAGCGCTA | -0.126
AAGCGTAT | -0.0427
AATTAACT | 0.0348
ACGGGCGC | 0.0278
AAAACAAG | 0.229
CGTGCGAG | -0.0346
AAAGTCAG | -0.0665
CGCATTAG | -0.254
CTTACGAC | -0.14
ACGCGTAC | 0.25
GATACGCC | -0.144
CAAACTGC | -0.204

Sequence | PBM E-score
CAGTGTGG | -0.249
AGCACGTA | 0.136
GCCCCTAA | -0.242
GCCCGAGC | -0.18
ATCGTTAC | -0.0096
TCACATAA | 0.222
ACAATGTA | 0.272
GAGAGTAA | 0.0261
ATAGGTTG | -0.133
ACCACGCT | -0.0319
CAAGTATC | 0.0414
ACATCGCA | 0.156
CATCAGGC | 0.238
GCTTCGTA | 0.0147
ATATGCTG | -0.0858
CAAGATGC | 0.0838
GCAATACA | 0.265
CCCCCATA | -0.133
GCCCGTTA | -0.0937
AGTCACTA | 0.121
ACGAGGTG | 0.0347
ATAAAATC | 0.00782

Sequence | PBM E-score
AGCCAGGG | -0.233
ACTGGATG | -0.0851
AATGCAGT | -0.0982
CCATGTGC | -0.00372
CCTGCGAC | -0.0871
CAGCAGCG | 0.0445
CCACACCG | -0.0267
AGCCTCTC | -0.133
ACAGTTAT | 0.0104
AGCTAGCA | -0.21
AGGTCGGG | -0.209
GACGCTCA | -0.19
GCAGAAGC | -0.268
AGTTTAAA | 0.199
AGATGTTG | -0.102
ATGAGGGA | -0.183
GACCCCAA | -0.297
GGCCCAAA | -0.315
AAGACATG | 0.2
CAGCGCAA | -0.0296
ATCATGAA | -0.0373
GAATGTGC | -0.0285

Sequence | PBM E-score
ACTGGACC | -0.199
AGATAAAC | 0.0476
CAGTCCAG | -0.196
CGTAAGCA | -0.114
CTTGGGGC | -0.237
CGGGCCAG | -0.185
ACTCTTTC | -0.19
ATCTAGAA | -0.0569
CCTTCTGA | 0.0882
AAAACCCA | 0.15
GCTCGCAA | -0.0946
ACTGGGTG | -0.018
CCTCAGGA | -0.298
ACTCGATG | 0.0894
CAGGCCTG | -0.079
CGCAGGGA | -0.253
GGATACGA | 0.0163
ATAAGCCC | -0.204
ATATACGG | -0.0183
CCCCAAAA | -0.0747
CATCTAGG | -0.0321
CCTAATAA | 0.0481
